Several values for one entry are separate records, joined by “and”; a condition that tells them apart may be missing. Equal values may be shown once. The campaign covered roughly 360,000 compounds. About 2,600 (0.72%) were called active. Inconclusive means that the source gave no clear call. Such entries were picked first, then a sample of the others. The call rests on the fitted dose curve; in most records, active means well fitted inhibition curve with a large enough effect; inconclusive means small, poorly fitted or top-dose-only effect; inactive means no such curve, though single readings can be large or run the other way. Potencies of inconclusive entries are doubtful fits and often do not repeat.
Experiment: Primary qHTS for Inhibitors of ATXN expression; further: nearly all actives have a fitted effect of over 55% in size
Conditions: HEK-293 ATXN2-luciferase reporter, luminescence, 24 h; activity change, negative = inhibition: at 57 µM (top of the series)
In short: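 ATXN2-luciferase reporter cells (luciferase flanked by upstream and downstream ATXN2 gene portions) were treated 24 h at 37 °C with compounds at up to 57 uM. SteadyGlo luminescence gave expression; GF-AFC fluorescence gave viability.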
On the % scale 0 is the no-effect control and ±100 the full control effect; potency means the concentration at half of the fitted maximal effect; tags describe the fitted curve by direction and shape.

SMILES | activity change, negative = inhibition | Potency
COc1ccc(NC(=O)CSC2CC(=O)N(c3ccc4c(c3)OCCO4)C2=O)cc1 (stereo not drawn) | inactive: 5.67% | 
Cc1cccc(C(=O)NNC2=C(C(=O)C(F)(F)F)CCC2)c1O |  | inconclusive: 28.2 µM [inhibitor, single point]
CCNC(=O)C1CCCN(C(=O)c2ccc(OC(F)F)cc2)CC1 (stereo not drawn) | inactive: -4.66% | 
CCOc1ccc(C(=O)N/N=C(\c2ccccc2)c2ccccn2)cc1 |  | active: 7.94 µM
COc1ccccc1NS(=O)(=O)c1cccc(C(=O)NN=C2CCCCCC2)c1 |  | inconclusive: 8.91 µM [inhibitor, single point]
CCOc1ccc(NC(=O)Nc2nnc(CC(=O)NCc3ccccc3)s2)cc1 |  | inconclusive: 25.1 µM [inhibitor, single point]
CCCCCn1c(CN2CCN(c3cccc(Cl)c3)CC2)nc2c1c(=O)[nH]c(=O)n2C |  | active: 25.1 µM
COc1cc(/C=C/c2cc(C(F)(F)F)[nH]c(=O)n2)cc(OC)c1OC |  | inconclusive: 25.1 µM [inhibitor, single point]
CCOCCCNC(=S)N1CCCN(c2nc3cc(C)cc(C)c3cc2C#N)CC1 |  | inconclusive: 37.7 µM [inhibitor, single point]
CCc1cc(Nc2nccc(-c3c(-c4ccc(OC)c(C(=O)Nc5c(F)cccc5F)c4)nc4ccccn34)n2)c(OC)cc1N1CCC(N2CCN(S(C)(=O)=O)CC2)CC1 |  | inconclusive: 3.43 µM [inhibitor, full curve]
Cc1ccccc1-c1nc(CNC(=O)Nc2ccccc2)c(C)o1 | inactive: -21.2% | 
O=C(N/N=C/c1ccccn1)c1ccc(Cl)cc1 |  | inconclusive: 39.8 µM [inhibitor, single point]
Cc1cc(C)c2c(CC(=O)N(Cc3ccc(N(C)C)cc3)Cc3ccco3)coc2c1 |  | inconclusive: 17.8 µM [inhibitor, partial curve, poor fit]
Cc1c(Cl)ccc2sc(N3CCN(C(=O)c4ccco4)CC3)nc12 |  | inconclusive: 39.8 µM [inhibitor, single point]
Cc1cc(C)cc(NC(=O)c2ccc(NC(=O)c3ccco3)cc2)c1 |  | inconclusive: 12.6 µM [inhibitor, partial curve, poor fit]
O=C1NC(=NCc2ccccc2)S/C1=C/c1ccc(O)cc1 |  | inconclusive: 21.2 µM [inhibitor, partial curve, poor fit]
CCCCCCN1C[C@H](O)[C@@H](n2cc(-c3ccc(F)cc3)nn2)C[C@@H]1c1ccc(Cl)cc1 |  | inconclusive: 25.1 µM [inhibitor, single point]
CN(C)/C=C/C(=O)c1ccc(S(=O)(=O)c2ccccc2)cc1 |  | inconclusive: 20 µM [inhibitor, partial curve, poor fit]
CN1CCN(c2ccc(CNC(=O)c3ccc(-c4ccc(F)c(F)c4)c4ccoc34)cc2)CC1 |  | inconclusive: 31.6 µM [inhibitor, partial curve]
COc1ccc(OC)c(NC(=O)CSc2c3c(nc4ccccc24)CCCC3)c1 |  | inconclusive: 22.4 µM [inhibitor, single point]
COc1cccc(-c2nc(NCc3ccco3)c3ccccc3n2)c1O | inactive: -38.7% | 

SMILES | activity change, negative = inhibition | Potency
Cc1cc(NC(=O)c2ccc(S(=O)(=O)N(C)CC3CCCO3)cc2)no1 (stereo not drawn) | inactive: -24.5% | 
NC(c1ccccc1)c1csc(NC(=O)Nc2ccccc2Oc2ccccc2)n1 (stereo not drawn) |  | inconclusive: 39.8 µM [inhibitor, single point]
S=C(Nc1ccc(Br)cc1)NC1CCN(Cc2ccccc2)CC1 |  | inconclusive: 35.5 µM [inhibitor, single point]
O=C(O)c1cccc(NC(=O)c2ccccc2NC(=O)c2ccccc2F)c1 |  | inconclusive: 3.16 µM [inhibitor, single point]
CCCC(=O)c1c[nH]c(C(=O)NCCc2ccccn2)c1 | inactive: 20.7% | 
Cc1cccc(NC(=O)CCC(=O)N/N=C/c2ccc(O)cc2O)c1 |  | inconclusive: 25.1 µM [inhibitor, single point]
O=c1c2cc(F)ccc2sn1-c1ccccc1Cl |  | inconclusive: 28.2 µM [inhibitor, single point]
CC(=O)O[C@@]12CO[C@H]1C[C@H](O)[C@@]1(C)C(=O)[C@H](O)C3=C(C)[C@@H](OC(=O)C(O)[C@@H](NC(=O)OC(C)(C)C)c4ccccc4)C[C@@](O)([C@@H](OC(=O)c4ccccc4)[C@@H]21)C3(C)C (stereo partly drawn) |  | inconclusive: 0.0077 µM [inhibitor, full curve]
CN1CCN(C(=O)C(=O)Nc2c3c(nn2-c2ccc(F)cc2)CSC3)CC1 | inactive: -0.422% | 
CCN1CCc2c(sc(NC(=O)COc3ccccc3)c2C(=O)OC)C1 |  | inconclusive: 25.1 µM [inhibitor, partial curve, poor fit]
NC(=O)CC(NC(=O)Cc1cccc2ccccc12)c1ccc(NCc2ccc(F)c(F)c2)c([N+](=O)[O-])c1 (stereo not drawn) |  | inconclusive: 25.1 µM [inhibitor, partial curve, poor fit]
Nc1ccc(OC(=O)Nc2ccc(O)cc2)cc1 |  | inconclusive: 13.4 µM [inhibitor, partial curve, poor fit]
C=CCc1c(C)nc2c(C)cccc2c1SC(=N)N |  | inconclusive: 11.2 µM [inhibitor, partial curve, poor fit]
Cc1ccc(OCC(=O)N2CCN(c3nnc(-c4ccccc4)c4ccccc34)CC2)cc1 |  | inconclusive: 28.2 µM [inhibitor, partial curve, poor fit]
CCOC(=O)N/N=C/c1ccc(OCCSc2ccc(Cl)cc2)c(OC)c1 | inactive: 10.7% | 
COP(=O)(OC)c1ccc(NCc2cc(O)ccc2O)cc1 | inactive: 9.38% | 
C[C@H](O)[C@@H]1CN2CCc3c([nH]c4ccc(-c5ccc6c(c5)OCO6)cc34)[C@@H]2C[C@@H]1N(C)C(=O)Nc1ccc(F)cc1 |  | inconclusive: 31.6 µM [inhibitor, partial curve, poor fit]
COC(=O)c1ccc(NC(=O)c2c(NCc3ccc(C)o3)sc3c2CCCC3)cc1 |  | inconclusive: 39.8 µM [inhibitor, single point]
CC(NC(=O)CNC(=O)OCc1ccccc1)C(=O)N1CC(O)CC1C(=O)OCc1ccccc1 (stereo not drawn) |  | inconclusive: 28.2 µM [inhibitor, partial curve, poor fit]
CCCCn1nnnc1C1(C)CCC(=O)N1CCCn1ccnc1 (stereo not drawn) | inactive: -29.7% | 
COc1cc(/C=C/C(=O)c2ccc(Cl)s2)cc(OC)c1O |  | inconclusive: 25.1 µM [inhibitor, single point]

SMILES | activity change, negative = inhibition | Potency
O=C(NC(=S)Nc1cc(C(F)(F)F)ccc1Cl)c1ccccc1 | inactive: -5.36% | 
CCc1cccc(NC(=O)CN(C)S(=O)(=O)c2cccc3nsnc23)c1 | inactive: -3% | 
COc1ccccc1CNC(=O)C1(C)CCN1C(=O)C1(c2ccccc2)CC1 (stereo not drawn) | inactive: -1.91% | 
CC1CCc2sc(C(=O)NCc3ccccn3)cc2C1 (stereo not drawn) | inactive: 46.7% | 
C=CC[C@@H](CC(=O)N(CCO)Cc1ccccc1)C(=O)N[C@H](COC(=O)[C@@H](CC=C)Cc1ccc(F)cc1)c1ccccc1 |  | inconclusive: 39.8 µM [inhibitor, single point]
O=C1[C@H](Cc2ccccc2)NCC=CC[C@@H](c2ccc(Cl)cc2)N1Cc1ccccc1 |  | inconclusive: 31.6 µM [inhibitor, single point]
COc1cc(OC)c(OC)cc1CN1CCN(c2ccccc2OC)CC1 | inactive: -11.6% | 
COc1cc2nccc(Oc3ccc(NC(=O)Nc4cc(C)on4)c(Cl)c3)c2cc1OC |  | inconclusive: 21.7 µM [inhibitor, partial curve]
CCOC(=O)C(=CNc1cc(C)ccc1-n1cccc1)C(=O)OCC |  | inconclusive: 44.7 µM [inhibitor, partial curve, poor fit]
Cc1ccc(S(=O)(=O)/N=C2\C=C(Nc3cccc(C(=O)O)c3)C(=O)c3ccccc32)c(C)c1 |  | active: 31.6 µM
CO[C@@H]1[C@H](N(C)C(=O)c2ccccc2)C[C@H]2O[C@]1(C)n1c3ccccc3c3c4c(c5c6ccccc6n2c5c31)C(=O)NC4 |  | inconclusive: 9.68 µM [inhibitor, partial curve]
NC(=S)NN=C1c2ccccc2-c2c(F)c(F)c(F)c(F)c21 |  | inconclusive: 39.8 µM [inhibitor, single point]
CC(=O)Nc1ccc(-c2ccnc3c2CC(C)(C(=O)Nc2cccc(C(F)(F)F)c2)O3)cc1 (stereo not drawn) |  | inconclusive: 31.6 µM [inhibitor, partial curve, poor fit]
O=C(c1ccc(-c2ccccc2)c(F)c1)C1CCCN(CCCn2cccn2)C1 (stereo not drawn) |  | inconclusive: 15.8 µM [inhibitor, partial curve, poor fit]
CCOc1ccc(/C=N/O)cc1 |  | inconclusive: 6.31 µM [inhibitor, single point]
Oc1c(I)cc(Cl)c2cccnc12 |  | active: 31.6 µM and inconclusive: 25.1 µM [inhibitor, single point]
C=C(C)COc1ccc(-c2[nH]ncc2-c2ccc(Br)cc2)c(O)c1 |  | inconclusive: 39.8 µM [inhibitor, single point]
CCOc1cc(/C=C(\C#N)c2nc(-c3cccs3)c(NC(C)=O)s2)ccc1O |  | inconclusive: 13.4 µM [inhibitor, partial curve, poor fit]
COc1cccc(C=NNC(=O)c2ccncc2)c1O |  | active: 10 µM
COCc1cc(CNC(=O)C2CCC(=O)N(Cc3cccc(OC)c3)C2)[nH]n1 (stereo not drawn) | inactive: 3.6% | 
CCOc1ccc(NC(=O)CN(C)C(=O)c2ccccc2CCc2ccccc2)cc1OCC |  | inconclusive: 31.6 µM [inhibitor, partial curve, poor fit]

From PubChem BioAssay AID1745845 (National Center for Advancing Translational Sciences (NCATS), 2022)
